Source: PubChem BioAssay (NCI)
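Dose response: 5 concentrations. Exposure: 48 h. Format: 96-well plates. Endpoint: linear interpolation; highest concentration if not reached. Here, GI50 denotes the concentration required for 50% inhibition of growth. At the TGI there is no net growth.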

System: NCI-H322M lung
Assay: NCI anticancer screen, dose series, 48 h

Work on `COc1cc(/C=N/NC(=O)c2cn(C3CC3)c3c(OC)c(N4CC5CCCNC5C4)c(F)cc3c2=O)ccc1O` (stereo unspecified) yielded a GI50 of 1670 nM and a TGI of 3.18 µM.

With `CCO/C=N/C1=C(C#N)C(c2ccc(OC)cc2)c2sc3c(C)cccc3c2O1` (stereo unspecified) the GI50 was 1490 nM and the TGI was greater than 100 µM.

With `C#Cc1nc(C2=C(C)C(OC(C)=O)/C(=N/OC(C)=O)C2)cs1` (stereo unspecified) the GI50 was greater than 100000 nM and the TGI was greater than 100 µM.
